From publication PMC4336329 (PLoS ONE, 2015)
In all, about 310,000 compounds went through this assay and about 2,200 (0.71%) showed an effect of 50% or more. Effects have a minus sign here. This is one part of the list.

Target: human ether-à-go-go-related gene (hERG) potassium channel (human, UniProt Q12809)
Experiment: primary screen, population patch clamp on CHO cells stably expressing hERG

Chain of human ether-à-go-go-related gene (hERG) potassium channel (Q12809 whole entry, looked up): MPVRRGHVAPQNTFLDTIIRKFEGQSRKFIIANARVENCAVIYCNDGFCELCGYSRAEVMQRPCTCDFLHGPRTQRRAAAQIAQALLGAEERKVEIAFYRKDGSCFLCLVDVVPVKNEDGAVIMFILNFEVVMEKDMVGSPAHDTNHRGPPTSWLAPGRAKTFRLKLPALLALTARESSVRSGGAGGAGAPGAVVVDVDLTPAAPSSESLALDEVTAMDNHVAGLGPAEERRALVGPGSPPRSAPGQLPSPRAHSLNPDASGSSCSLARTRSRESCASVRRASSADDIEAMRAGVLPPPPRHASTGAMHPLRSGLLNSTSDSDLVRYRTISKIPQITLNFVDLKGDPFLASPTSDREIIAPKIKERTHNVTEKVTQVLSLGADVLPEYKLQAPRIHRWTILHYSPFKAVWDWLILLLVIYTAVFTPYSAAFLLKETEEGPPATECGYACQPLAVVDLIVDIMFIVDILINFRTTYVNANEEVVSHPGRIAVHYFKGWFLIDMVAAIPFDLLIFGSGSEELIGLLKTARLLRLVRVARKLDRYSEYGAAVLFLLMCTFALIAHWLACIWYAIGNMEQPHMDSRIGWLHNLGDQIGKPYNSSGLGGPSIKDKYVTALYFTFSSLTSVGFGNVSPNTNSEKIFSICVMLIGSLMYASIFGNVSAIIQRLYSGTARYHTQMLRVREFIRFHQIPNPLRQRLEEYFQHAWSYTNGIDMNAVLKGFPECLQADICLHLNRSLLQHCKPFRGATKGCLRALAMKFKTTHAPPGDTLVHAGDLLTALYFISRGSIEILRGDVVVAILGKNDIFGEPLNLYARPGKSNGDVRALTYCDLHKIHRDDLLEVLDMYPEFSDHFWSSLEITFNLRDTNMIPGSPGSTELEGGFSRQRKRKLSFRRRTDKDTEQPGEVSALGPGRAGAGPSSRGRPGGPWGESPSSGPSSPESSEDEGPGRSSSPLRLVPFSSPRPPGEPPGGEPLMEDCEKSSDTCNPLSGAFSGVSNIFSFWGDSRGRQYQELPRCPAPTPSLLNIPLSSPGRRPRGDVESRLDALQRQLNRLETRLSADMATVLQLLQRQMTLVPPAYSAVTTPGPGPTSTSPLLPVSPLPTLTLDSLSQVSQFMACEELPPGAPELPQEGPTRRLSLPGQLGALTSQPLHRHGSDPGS

Compound | hERG current change (%, negative = inhibition) at 1uM [%]
COc1cc([N+](=O)[O-])ccc1-c1ccc(C(=O)Nc2ccc(NC(C)=O)cc2)o1 | 1.74
COc1ccc(S(=O)(=O)NCc2ccccn2)c(C)c1C | 4.55
CCN(CC)S(=O)(=O)c1ccc2c(c1)c(=O)c(C(=O)NCCc1ccccc1)cn2C | 7.68
O=C(OCC(=O)N1CCc2ccccc21)c1c2c(nc3ccccc13)CCCCC2 | 1.44
CCOC(=O)C1=C(C)NC2=C(C(=O)C(C(=O)OCC)C(c3ccccc3OC)C2)C1c1ccccn1 (stereo not drawn) | 9.78
CCOC(=O)c1[nH]c(C)c(C(=O)NCc2ccco2)c1C | 0.814
COc1ccccc1N1CCN(C(=O)c2ccc3c(=O)n4c(nc3c2)CCCCC4)CC1.Cl | 10.4
Cc1cccc2cc(C#N)c(NCc3ccccc3)nc12 | 17.8
Nc1nnc(SCC(=O)Nc2cccc(S(=O)(=O)N3CCCCC3)c2)s1 | 2.77
COc1ccc(Cl)c2sc(N3CCN(C(C)=O)CC3)nc12 | -2.04
O=C(O)CCc1ccc(-c2ccc(Br)cc2)n1-c1cccc(O)c1 | 20.8
CCOC(=O)N1CCC(NC(=O)c2cc3c(=O)n(C)c4ccccc4c3n2C)CC1 | 9.62
Cc1nn(-c2ccccc2)c(Cl)c1/C=N/Nc1nc2ccccc2n1C | 12.6
Cc1cc(C)n(Cc2cccc(F)c2)c(=O)c1C#N | 3.71
Cc1ccccc1/C(N)=N/OC(=O)N1c2ccccc2Sc2ccccc21 | 18
COc1ccc(NC(=O)CSc2nc(SC)ns2)cc1 | 11.5
O=S(=O)(c1ccccc1)N1CCN(C(=S)NCc2ccccc2)CC1 | 2.81
CCOc1ccc(S(=O)(=O)N2CCCC(C(=O)Nc3cccc(C)c3)C2)cc1 (stereo not drawn) | 15.1
CCOC(=O)N1CCN(Cc2nc3c(c(=O)[nH]c(=O)n3C)n2Cc2ccccc2C)CC1 | -8
COc1cccc(/C=C2\SC(=S)N(CCCC(=O)Nc3ccc(C(=O)O)cc3)C2=O)c1 | 16
CC1CC(C)CN(C(=O)C(C)N(C)CC(=O)Nc2ccccc2Cl)C1 (stereo not drawn) | 6.48
CCC(C)c1ccc(S(=O)(=O)N2CCN(C(=O)COc3ccc4c(C)cc(=O)oc4c3)CC2)cc1 (stereo not drawn) | 8.37

Compound | hERG current change (%, negative = inhibition) at 1uM [%]
O=C(NC1CCN(C(=O)c2cccs2)CC1)c1ccccc1 | 3.07
CCOC(=O)CSC1=N/C(=C\c2cccnc2)C(=O)N1c1ccc(OC)cc1 | 0.577
COc1ccc(S(=O)(=O)NC(C)C(=O)Nc2ccccc2F)cc1 (stereo not drawn) | 7.22
N#Cc1cc2c(nc1SCc1cccnc1)CCC2 | -4.71
OC1(c2ccccc2F)CCN(Cc2nnnn2CCc2ccccc2)CC1 | 18.8
CCOC(=O)c1c(C)nc2c(c(SC)nn2-c2ccccc2)c1N | 16.6
Clc1ccc(-n2nnc(-c3ncc[nH]3)n2)cc1Cl | 4.89
O=C(c1noc2c1CCc1ccccc1-2)N1CCOCC1 | 8.91
COc1ccc(Cl)cc1NS(=O)(=O)c1cccc2cccnc12 | 19.4
NS(=O)(=O)c1ccc(NC(=O)c2ccc(COc3ccccc3)o2)cc1 | 14.8
COc1ccc2[nH]c(=O)c(CN(Cc3ccccc3)C(=S)NCC3CCCO3)cc2c1 (stereo not drawn) | 9.55
CCC(=O)c1ccc(OCC(O)Cn2nc(C)cc2C)cc1 (stereo not drawn) | 7.89
CCC(C)C1NC(=S)N(C2CCCCC2)C1=O (stereo not drawn) | 3.28
O=[N+]([O-])c1cc(/C=N/O)ccc1SCc1ccccc1 | 6.61
Nc1nc(COC(=O)CCC(=O)c2ccc(Cl)cc2)nc(Nc2ccccc2)n1 | 4.9
Cc1ccccc1C(=O)NC(=S)N(C)C1CCCCC1 | -4.55
Cc1ccc(CNC(=O)CSc2nnc3c(n2)[nH]c2ccc(F)cc23)cc1 | 15.3
CCOc1ccc(OCCC(=O)OCC(=O)N2CCN(S(=O)(=O)c3ccc(Cl)cc3)CC2)cc1 | -1.84
COc1ccccc1C(=O)Nc1cccc(C(=O)c2ccccc2)c1 | 4.61
Cc1sc2ncnc(SCC(=O)N3CCCC3=O)c2c1C | 9.56
O=C(OCc1ccc(Br)cc1F)c1cc2ccccc2oc1=O | 9.64
COc1ccc(C(=O)CC2(C(=O)O)CCCCC2)cc1 | 9.93

Compound | hERG current change (%, negative = inhibition) at 1uM [%]
CCOCCCNc1ncc2c(n1)CC(c1ccc(C)cc1)CC2=O (stereo not drawn) | 12.2
COc1cc(-n2c(=O)c3ccccc3n(CC(=O)c3ccc(F)cc3)c2=O)cc(OC)c1OC | 18.3
CCOC(=O)C1=C(C)n2c(s/c(=C/c3cccc([N+](=O)[O-])c3)c2=O)=NC1c1ccc(O)c(OC)c1 (stereo not drawn) | -4.93
COc1cc(-c2noc(CCCC(=O)NCc3ccccc3)n2)cc(OC)c1OC | 9.02
CCc1ccc(N(CC(=O)Nc2ccccc2C(=O)N2CCCC2)S(C)(=O)=O)cc1 | 2.3
COc1ccc2cc(OCC(=O)NNC(=O)Nc3ccc(F)cc3)ccc2c1 | 13.1
Oc1c(C(c2ccccc2)N2CCc3ccccc3C2)sc2ncnn12 (stereo not drawn) | 14.3
COCCNC(=O)c1cccc(OC2CCN(Cc3ccccc3C)CC2)c1 | 10.3
Cc1cc(C)n2nc(SCC(=O)N3CCN(c4ccc(F)cc4)CC3)nc2n1 | 5.53
O=C(NCCCN1CCN(c2ccccc2F)CC1)Nc1ccccc1[N+](=O)[O-] | -51.1
CCCCCC1CCC(c2n[nH]c(=S)n2C)CC1 (stereo not drawn) | 6.3
CCC(C)N(C(=O)CSc1ncnc2c1cnn2-c1ccccc1)C1CCS(=O)(=O)C1 (stereo not drawn) | 9.25
COc1ccc(C(=O)Nc2nc3ccc(S(C)(=O)=O)cc3s2)cc1 | 15.4
CC1(C)CC(CC(=O)NNc2nc(-c3ccccc3)cs2)C(=O)O1 (stereo not drawn) | 4.12
O=C1C2CCCN2C(c2ccc(F)cc2)N1c1cccc(Cl)c1 (stereo not drawn) | 8.69
Nc1ccc(-n2nnnc2CN2CCOCC2)cc1 | 11.1
CCN(C1CCCCC1)S(=O)(=O)c1ccc(S(=O)(=O)N(CC(=O)Nc2ccccc2)C2CC2)cc1 | -6.64
Cc1c(C)n(Cc2ccc(Cl)cc2)c2ccc(C(=O)NCCN3CCOCC3)cc12 | 14.7
COc1ccc(C(=O)OCC(=O)Nc2ccc([N+](=O)[O-])cc2OC)c(O)c1 | -2.02
O=C1c2ccccc2C(=O)N1CC(=O)N1c2ccccc2Sc2ccc(C(F)(F)F)cc21 | -2.06
COc1ccc(CSc2nc(C)cc(=O)[nH]2)cc1Br | 12.7
CCCC(=O)Nc1sc(Cc2ccccc2)c(C)c1C(N)=O | 8.37

Compound | hERG current change (%, negative = inhibition) at 1uM [%]
CCCNC(=O)Nc1ccc(NC(C)=O)cc1 | -12.2
O=C(O)CCNC(=O)/C(=C\C=C\c1ccccc1)NC(=O)c1ccccc1 | 17.7
CCc1ccc(OCCCCCn2ccnc2)cc1 | 12.8
CCCOC(=O)CC1C(=O)NCCN1Cc1cc(OC)cc(OC)c1 (stereo not drawn) | -0.865
OCC[C@@H]1C[C@@H](O)[C@H](O)[C@]2(OCCCc3ccccc32)O1 | 16.6
O=C(NCCCN1CCOCC1)c1ccc(Cl)c([N+](=O)[O-])c1 | 9.74
Cc1ccc(-c2nc(N/N=C/c3ccncc3)c3ccccc3n2)cc1 | 3.75
Cc1cc2nc(SCCOC(=O)Nc3ccccc3)nc(C)c2cc1C | 14.9
CCC(=O)N1CCN(c2ccc(Cl)cc2NC(=O)c2ccc([N+](=O)[O-])o2)CC1 | 0.198
COc1ccccc1N1CCN(C(=O)C2CCN(S(=O)(=O)c3ccc4c(c3)CC(C)N4C(=O)C3CC3)CC2)CC1 (stereo not drawn) | 4.54
Cc1ccnc(NC(c2ccsc2)c2ccc3ccc(C)nc3c2O)c1 (stereo not drawn) | 4.33
CCOC(=O)c1c(NC(=O)CC2SC(N)=NC2=O)sc2c1CCC(C)C2 (stereo not drawn) | 9.99
Cn1c(=O)cc(N2CCOCC2)[nH]c1=O | -3.26
Cc1c(CC(=O)NCCC(C)C)c(=O)oc2cc3c(cc12)CCC(C)(C)O3 | 17.9
CN(C)C=NC(=O)c1ccc([N+](=O)[O-])c(CS(=O)(=O)c2ccc(Cl)cc2)c1 | -12.3
Nn1c(SCc2ccc(Br)cc2)nnc1-c1cccnc1 | 21.3
COc1ccc(C(CNC(=O)c2cccc(NS(=O)(=O)c3ccccc3)c2)N(C)C)cc1 (stereo not drawn) | -7.23
COC(=O)N/N=C/c1cc(OC)c(O)c([N+](=O)[O-])c1 | 8.28
CCN(C(=O)COc1ccccc1C(=O)NCc1ccccc1)C1CCS(=O)(=O)C1 (stereo not drawn) | 4.74
CCCOc1ccc(C(=O)Nc2ccc(Cl)cn2)cc1 | 8.54
O=C(N/N=C/C=C/c1ccccc1)c1n[nH]c2c1CCC2 | 18.3
